The text below walks through data of ChEMBL document CHEMBL4888484, “Replenishing the malaria drug discovery pipeline: Screening and hit evaluation of the MMV Hit Generation Library 1 (HGL1) against asexual blood stage Plasmodium falciparum ,using a nano luciferase reporter read-out” (2022).

“And” between values parts separate entries of the source, which are not always exact repeats. Identical values can stand only once. Screen size: about 150,000 compounds; about 540 (0.36%) showed an effect of 50% or more. The list shows a part of the results.

In the experiment the test system is Plasmodium falciparum. The experiment can be described thus: Primary screen in NF54 nanoGlo assay, in single point, at 2uM, 72h; a lower Z score goes with more inhibition. The experiment is classed as functional, Erythrocyte. The note with it: timepoint 72 hour.

One may read the % Inhibition as the relative decrease from the control value, in per cent. Consider `Brc1ccc(CNCCn2cnnc2C2CC2)cc1`, for which the “% Inhibition” value was 32% and the Z score is -3.62.
The like results for `Cc1ccc(CNC(=O)N2CCN(S(=O)(=O)c3ccccc3)CC2)s1` were, in that order, -7% and 0.86.
Take `Cc1cnc(C)c(N2CC[C@H]3[C@H](CCC(=O)N3CCCCO)C2)n1`: the “% Inhibition” value amounted to 2% and the Z score is on record as -0.46.
Regarding `COc1ccc2cc([C@@]3(C)NC(=O)N(CC(=O)N4CCN(S(C)(=O)=O)CC4)C3=O)ccc2c1`, the “% Inhibition” value is listed as -11% and the Z score worked out at 1.54.
On the same counts, the results for `O=C(N[C@@H](Cc1ccncc1)C1CC(O)C1)c1cccc(-c2ccco2)c1` (stereo not given in full) are 2% and -0.16.
The like results for `CN1CCC[C@H](NC(=O)c2cc(F)cc(Cl)c2O)C1=O` were, in that order, 0% and 0.08.
`O=C(N[C@H]1CCCc2ccccc21)c1cc(-c2ccccc2)nc2ccccc12`: the “% Inhibition” value was 0% and the Z score turned out to be 0.01.
Take `Cc1onc(-c2ccccc2Cl)c1C(=O)N[C@@H](C)c1nccn1-c1ccccc1`: the “% Inhibition” value is given as -7% and the Z score is 1.28.
The like results for `Cn1ccnc1C(=O)N1C[C@@H](Oc2cccnc2)C[C@H]1C(=O)N1CCOCC1` were, in that order, 3% and -0.37.
Take `CCC(=O)N(Cc1c(-c2cccc(C)c2)noc1N1CCOCC1)C1CC1`: the “% Inhibition” value was -5% and the Z score came to 0.64.
The like results for `CCOC(=O)c1c(C)[nH]c(C(=O)N2[C@@H]3CC[C@H]2CNC(=O)C3)c1C` were, in that order, -6% and 1.09.
Turning to `CCN(C(=O)CN(C)CCO)c1ccccc1C`, the “% Inhibition” value is reported as -5% and the Z score stood at 0.73.
The like results for `FC(F)(F)c1ncnc(N2CCc3nc[nH]c3C2)c1Br` were, in that order, -11% and 1.61.
On the same counts, the results for `COc1ccc(NC(=O)c2ccc(COC(=O)c3ccc(C)c(O)c3)cc2)cc1` are -13% and 1.82.
As for `COc1ccc(CCNCC(=O)Nc2c3c(nc4ccccc24)N(C)CC3)cc1OC`, under “2 µM”, the Z score is -0.45 and -0.99.
With `CC[C@@H](CO)NC(=O)Nc1cccnc1`, the “% Inhibition” value is recorded as -11% and the Z score worked out at 0.95.
As to `CCc1cccc(NC(=O)N2CCC3(CC2)C(=O)N(CC(=O)Nc2ccc(F)cc2)CN3c2ccccc2)c1`, the “% Inhibition” value is on record as 36% and the Z score is recorded as -7.73.
On the same counts, the results for `CCc1nccc(N2CCO[C@@H](CCF)C2)n1` are -14% and 1.24.
With `CC(C)C1NC2(C(=O)Nc3ccccc32)C2C(=O)N(c3ccccc3Br)C(=O)C12` (stereo not given), the “% Inhibition” value is listed as -7% and the Z score came out at 0.83.
On the same counts, the results for `O=C(CN1CC[C@@]2(CCCN(CC3CCCCC3)C2=O)C1)NCc1ccco1` are 3% and -0.61.
On the same counts, the results for `COC(=O)NCC1(C)CC(NC(=O)OC)CC(C)(C)C1` (stereo not given) are -2% and 0.2.
On the same counts, the results for `O=C(C1CCC(Cn2c(=O)[nH]c3ccsc3c2=O)CC1)N1CCCC1` (stereo not given) are 3% and -0.23.
As to `C#CCNC(=O)c1ccnc(OC2CCOCC2)c1`, the “% Inhibition” value is listed as -3% and the Z score is given as 0.49.
For the molecule `COC1CCN(C(=O)N[C@H]2COc3c2ccc(Cl)c3Cl)CC1`, the “% Inhibition” value amounted to 0% and the Z score is reported as 0.01.
The like results for `CCCN1C[C@]23C=C[C@H](O2)[C@H](C(=O)N(C)Cc2noc(C(C)C)n2)[C@@H]3C1=O` were, in that order, 5% and -0.85.
As to `CCc1nc(C)c(C(=O)N[C@H]2CCOC2)o1`, the “% Inhibition” value is listed as 8% and the Z score was -1.05.
As for `O=C(c1cccnc1)N1CC(c2nc(-c3ccco3)no2)C1`, the “% Inhibition” value came out at 18% and the Z score is given as -2.02.
On the same counts, the results for `CN(CCCn1cccn1)Cc1ccncc1Cl` are 0% and -0.07.
The like results for `CC(=O)c1cc(C(=O)NC(C)(C)CC2Cc3ccccc3C2)[nH]n1` were, in that order, -32% and 3.22.
The like results for `O=C(c1n[nH]c2c1CCCCCC2)N1CCC(c2nc(C3CCOCC3)no2)CC1` were, in that order, -3% and 0.4.
As to `COc1ccc(NC(=O)[C@@H]2CCCN2Cc2csc(C(C)(C)C)n2)cc1`, the “% Inhibition” value is -2% and the Z score was found to be 0.26.
On the same counts, the results for `Cc1cccc(-n2nc(CC(N)=O)nc2-c2ccc(Cn3cccn3)o2)c1C` are 6% and -0.99.
On to `CCN1CCC[C@@H]1CN(C)CCn1nc(C)cc1C`, for which the “% Inhibition” value is -8% and the Z score is 1.43.
On the same counts, the results for `O=C1NC2(CCCCC2)C(=O)N1CCC(=O)N1CCCC[C@H]1c1ccc(C(F)(F)F)cc1` are 2% and -0.28.
The like results for `CCc1cc(C(=O)N(CC(F)F)C2CCN(S(C)(=O)=O)CC2)[nH]n1` were, in that order, 28% and -3.18.
In the case of `N#C[C@@H](C(=O)c1ccc(C(F)(F)F)cc1)c1nnnn1-c1ccccc1`, the “% Inhibition” value is -9% and the Z score was found to be 1.08.
As to `CCc1ccc(S(=O)(=O)N2C[C@H](C(=O)NC3CCCCC3)C3(CCOCC3)C2)cc1`, the “% Inhibition” value is on record as -7% and the Z score is given as 1.4.
The like results for `Cn1nncc1S(=O)(=O)N1CCOc2c1cccc2C(F)(F)F` were, in that order, -6% and 0.95.
The like results for `Cc1c(C(=O)NC2(c3noc([C@H]4CCOC4)n3)CCCCCC2)cnn1C` were, in that order, 6% and -1.01.
The like results for `Cc1nn(C)cc1CNC(=O)C[C@@H](c1cccc(O)c1)c1ccccc1Cl` were, in that order, 12% and -1.63.
For `COCc1nsc(NC(=O)c2occc2C)n1`, the “% Inhibition” value is -15% and the Z score was found to be 1.7.
On the same counts, the results for `Cn1ccc2cc(C(O)CNC(=O)C3CC=CCC3)ccc21` (stereo not given) are -8% and 0.97.
The like results for `CC[C@H](C)NC(=O)Cn1c2ccccc2c2nnc(-n3nc(C)cc3C)nc21` were, in that order, 7% and -1.02.
`Cc1noc(C)c1S(=O)(=O)N1CCC2(CCCCO2)CC1`: the “% Inhibition” value was -4% and the Z score came out at 0.77.
In the case of `Cc1ccc(N2C(=O)CC[C@@]2(C)C(=O)NC2CCCC2)cc1`, the “% Inhibition” value is on record as -8% and the Z score worked out at 0.9.
Turning to `O=C(N[C@@H](Cc1ccccc1)C(=O)O)c1ccc(Br)cn1`, the “% Inhibition” value is given as 0% and the Z score is reported as -0.05.
The like results for `CCOc1ccc(C(=O)N2c3ccccc3C[C@@H]2C)nn1` were, in that order, 4% and -0.44.
On to `C#CCOc1ccccc1CN1CCCC2(C1)OCCO2`, for which the “% Inhibition” value is listed as -13% and the Z score is recorded as 1.13.
The like results for `N#Cc1cccc(CN(Cc2cccc(C#N)c2)[C@@H]2CO[C@H](CNC(=O)c3ccccc3)[C@H]2O)c1` were, in that order, 35% and -3.95.
On the same counts, the results for `Cc1nc(C(=O)NCCN2CCOCC2)c(-c2ccc(F)cc2)s1` are -1% and 0.14.
The like results for `CC(C)N(Cc1ccccc1)C[C@H](C)N` were, in that order, 4% and -0.48.
In the case of `Cc1nnsc1CN(C)Cc1ccc([C@@H]2CCCCO2)s1`, the “% Inhibition” value is -8% and the Z score amounted to 1.12.
Regarding `COc1ccc(-c2noc(NCCc3cccc(C)c3)n2)cc1OC`, the “% Inhibition” value is 9% and the Z score is listed as -1.42.
